# Test results as given in the supplement of paper PMC8728848.
# The other results are listed elsewhere or left out.
# B1: CPA (Cicer arietinum) (protein)
# chain: MAFSYLNLVLVTLTTLFFLQTTKVKSQKSVSFHITNFTISRPSITLQGTAEFLPNVLLLNDIEHPVFVVGRALYSKPITLWNNKTGKVASFVTSFTFDVQDLKKTVPGHGLVFFLAPSGSEIPFSSDGGNLGVVDGKNAFNRFVGVEFDNFVNSWDPKYSHVGINVNSLISTKTVKWNRVSGELVKVSIVYDSVSTTLTVIVTYKNGQISILSQLVDLKAVLPDTVNIGFSASTTLVSPRQLHNIHSWSFTSTFET
# How the values were obtained:
# Assay in all cases: glycan array binding signal (z-score within array); higher = stronger binding
# Settings in all cases: glycan notation: IUPAC condensed, linker removed
# [1] = target: Gal(b1-3)GlcNAc(b1-2)Man(a1-3)[GlcNAc(b1-4)][Gal(b1-3)GlcNAc(b1-2)Man(a1-6)]Man(b1-4)GlcNAc(b1-4)GlcNAc
# Summary of the method: (§1)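 Glycan array data were curated from 3228 arrays in the Consortium for Functional Glycomics database and kept only where the protein sequence was available. Glycan names were converted to IUPAC-condensed notation, and columns mapping to the same glycan were averaged. The binding signal is a within-array Z-score, averaged across arrays of the same protein sequence at different concentrations or buffers and across linkers. Negative Z-scores can be read as non-binding.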
# [2] = target: Gal(b1-3)GlcNAc(b1-2)[Gal(b1-3)GlcNAc(b1-6)]Man(a1-6)[Gal(b1-3)GlcNAc(b1-2)Man(a1-3)]Man(b1-4)GlcNAc(b1-4)GlcNAc
# Summary of the method: as §1
# [3] = target: Gal(b1-3)GlcNAc(b1-3)Gal(b1-3)GlcNAc
# Summary of the method: as §1
# [4] = target: Gal(b1-3)GlcNAc(b1-3)Gal(b1-4)Glc
# Summary of the method: as §1
# [5] = target: Gal(b1-3)GlcNAc(b1-3)Gal(b1-4)GlcNAc
# Summary of the method: as §1
# [6] = target: Gal(b1-3)GlcNAc(b1-3)Gal(b1-4)GlcNAc(b1-2)Man(a1-3)[Gal(b1-3)GlcNAc(b1-3)Gal(b1-4)GlcNAc(b1-2)Man(a1-6)]Man(b1-4)GlcNAc(b1-4)GlcNAc
# Summary of the method: as §1
# [7] = target: Gal(b1-3)GlcNAc(b1-3)Gal(b1-4)GlcNAc(b1-2)[Gal(b1-3)GlcNAc(b1-3)Gal(b1-4)GlcNAc(b1-6)]Man(a1-6)[Gal(b1-3)GlcNAc(b1-3)Gal(b1-4)GlcNAc(b1-2)Man(a1-3)]Man(b1-4)GlcNAc(b1-4)[Fuc(a1-6)]GlcNAc
# Summary of the method: as §1
# [8] = target: Gal(b1-3)GlcNAc(b1-3)Gal(b1-4)GlcNAc(b1-3)Gal(b1-4)GlcNAc(b1-2)[Gal(b1-3)GlcNAc(b1-3)Gal(b1-4)GlcNAc(b1-3)Gal(b1-4)GlcNAc(b1-6)]Man(a1-6)[Gal(b1-3)GlcNAc(b1-3)Gal(b1-4)GlcNAc(b1-3)Gal(b1-4)GlcNAc(b1-2)Man(a1-3)]Man(b1-4)GlcNAc(b1-4)[Fuc(a1-6)]GlcNAc
# Summary of the method: as §1
# [9] = target: Gal(b1-3)GlcNAc(b1-3)Gal(b1-4)GlcNAc(b1-6)[Gal(b1-3)GlcNAc(b1-3)]Gal(b1-4)Glc
# Summary of the method: as §1
# [10] = target: Gal(b1-3)GlcNAc(b1-3)Gal(b1-4)[Fuc(a1-3)]GlcNAc
# Summary of the method: as §1
# [11] = target: Gal(b1-3)GlcNAc(b1-3)Gal(b1-4)[Fuc(a1-3)]GlcNAc(b1-6)[Gal(b1-3)GlcNAc(b1-3)]Gal(b1-4)Glc
# Summary of the method: as §1
# [12] = target: Gal(b1-3)GlcNAc(b1-3)GalNAc
# Summary of the method: as §1
# [13] = target: Gal(b1-3)GlcNAc(b1-6)Gal(b1-4)GlcNAc
# Summary of the method: as §1
# [14] = target: Gal(b1-3)GlcNAc(b1-6)GalNAc
# Summary of the method: as §1
# [15] = target: Gal(b1-3)GlcNAc(b1-6)[Gal(b1-3)]GalNAc
# Summary of the method: as §1
# Gal(b1-3)GlcNAc6S = target: Gal(b1-3)GlcNAc6S
# Summary of the method: as §1
# [16] = target: Gal(b1-3)[Fuc(a1-4)]GlcNAc
# Summary of the method: as §1
# [17] = target: Gal(b1-3)[Fuc(a1-4)]GlcNAc(b1-2)Man
# Summary of the method: as §1
# [18] = target: Gal(b1-3)[Fuc(a1-4)]GlcNAc(b1-2)Man(a1-3)[Gal(b1-3)[Fuc(a1-4)]GlcNAc(b1-2)Man(a1-6)]Man(b1-4)GlcNAc(b1-4)[Fuc(a1-6)]GlcNAc
# Summary of the method: as §1
# [19] = target: Gal(b1-3)[Fuc(a1-4)]GlcNAc(b1-3)Gal(b1-3)[Fuc(a1-4)]GlcNAc
# Summary of the method: as §1
# [20] = target: Gal(b1-3)[Fuc(a1-4)]GlcNAc(b1-3)Gal(b1-4)[Fuc(a1-3)]GlcNAc
# Summary of the method: as §1
# [21] = target: Gal(b1-3)[Fuc(a1-4)]GlcNAc(b1-6)GalNAc
# Summary of the method: as §1
# [22] = target: Gal(b1-3)[GlcNAc(b1-6)]GalNAc
# Summary of the method: as §1
# [23] = target: Gal(b1-3)[Neu5Ac(a2-6)]GalNAc
# Summary of the method: as §1
# [24] = target: Gal(b1-3)[Neu5Ac(a2-6)]GlcNAc(b1-4)Gal(b1-4)Glc
# Summary of the method: as §1
# [25] = target: Gal(b1-3)[Neu5Ac(b2-6)]GalNAc
# Summary of the method: as §1
# Gal(b1-4)Gal = target: Gal(b1-4)Gal
# Summary of the method: as §1
# [26] = target: Gal(b1-4)GalNAc(a1-3)[Fuc(a1-2)]Gal(b1-4)GlcNAc
# Summary of the method: as §1
# [27] = target: Gal(b1-4)GalNAc(b1-3)[Fuc(a1-2)]Gal(b1-4)GlcNAc
# Summary of the method: as §1
# Gal(b1-4)Glc = target: Gal(b1-4)Glc
# Summary of the method: as §1
# Gal(b1-4)Glc6S = target: Gal(b1-4)Glc6S
# Summary of the method: as §1
# Gal(b1-4)GlcNAc = target: Gal(b1-4)GlcNAc
# Summary of the method: as §1
# [28] = target: Gal(b1-4)GlcNAc(a1-6)Gal(b1-4)GlcNAc
# Summary of the method: as §1
# Gal(b1-4)GlcNAc(b1-2)Man = target: Gal(b1-4)GlcNAc(b1-2)Man
# Summary of the method: as §1
# [29] = target: Gal(b1-4)GlcNAc(b1-2)Man(a1-3)Man(b1-4)GlcNAc(b1-4)GlcNAc
# Summary of the method: as §1
# [30] = target: Gal(b1-4)GlcNAc(b1-2)Man(a1-3)[Gal(b1-4)GlcNAc(b1-2)Man(a1-6)]Man(b1-4)GlcNAc(b1-4)GlcNAc
# Summary of the method: as §1
# [31] = target: Gal(b1-4)GlcNAc(b1-2)Man(a1-3)[Gal(b1-4)GlcNAc(b1-2)Man(a1-6)]Man(b1-4)GlcNAc(b1-4)[Fuc(a1-6)]GlcNAc
# Summary of the method: as §1
binder,measurement,setting,value
B1,glycan array binding signal (z-score),[1],1.87
same,glycan array binding signal (z-score),[2],-0.14
same,glycan array binding signal (z-score),[3],0.038
same,glycan array binding signal (z-score),[4],-0.7
same,glycan array binding signal (z-score),[5],-0.695
same,glycan array binding signal (z-score),[6],-0.238
same,glycan array binding signal (z-score),[7],1.68
same,glycan array binding signal (z-score),[8],3.59
same,glycan array binding signal (z-score),[9],-0.028
same,glycan array binding signal (z-score),[10],-0.617
same,glycan array binding signal (z-score),[11],-0.558
same,glycan array binding signal (z-score),[12],0.028
same,glycan array binding signal (z-score),[13],-0.751
same,glycan array binding signal (z-score),[14],-0.396
same,glycan array binding signal (z-score),[15],-0.185
same,glycan array binding signal (z-score),Gal(b1-3)GlcNAc6S,-0.419
same,glycan array binding signal (z-score),[16],-0.282
same,glycan array binding signal (z-score),[17],0.564
same,glycan array binding signal (z-score),[18],0.518
same,glycan array binding signal (z-score),[19],-0.701
same,glycan array binding signal (z-score),[20],-0.459
same,glycan array binding signal (z-score),[21],-0.13
same,glycan array binding signal (z-score),[22],-0.164
same,glycan array binding signal (z-score),[23],-0.522
same,glycan array binding signal (z-score),[24],0.118
same,glycan array binding signal (z-score),[25],-0.733
same,glycan array binding signal (z-score),Gal(b1-4)Gal,-0.299
same,glycan array binding signal (z-score),[26],-0.399
same,glycan array binding signal (z-score),[27],-0.397
same,glycan array binding signal (z-score),Gal(b1-4)Glc,-0.475
same,glycan array binding signal (z-score),Gal(b1-4)Glc6S,-0.254
same,glycan array binding signal (z-score),Gal(b1-4)GlcNAc,-0.283
same,glycan array binding signal (z-score),[28],-0.222
same,glycan array binding signal (z-score),Gal(b1-4)GlcNAc(b1-2)Man,-0.366
same,glycan array binding signal (z-score),[29],-0.519
same,glycan array binding signal (z-score),[30],-0.111
same,glycan array binding signal (z-score),[31],0.037
